The data scatter; read single values as rough.
Assay: amyloid nucleation score relative to library mode (yeast Sup35 reporter selection) (log enrichment difference); higher = more amyloid nucleation; sequences are the first 22 residues of the Bri2 peptide extended by up to 12 random residues
Conditions: random library (experiment): 1;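 active = nucleation score significantly above 0 at FDR 0.05; inactive = not significantly above 0 or absent from output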
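Also: [psi-pin-] Saccharomyces cerevisiae expressing SupN fusions, induced by 100 µM Cu2SO4, selected 7 d at 30 °C without adenine and uracil, scored by deep sequencing of output versus input.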

Sequence | amyloid nucleation score
EASNCFAIRHFENKFAVETLICPCICTGGFVDYR | 7.73
EASNCFAIRHFENKFAVETLICPCLDLFVMTTVV | inactive
EASNCFAIRHFENKFAVETLICPCS | 1.01
EASNCFAIRHFENKFAVETLICPCSLGLFCETLY | 4.8
EASNCFAIRHFENKFAVETLICPCVFQWRVIR | 5.77
EASNCFAIRHFENKFAVETLICPCVRPTAWDRSQ | 8.05
EASNCFAIRHFENKFAVETLICPD | inactive
EASNCFAIRHFENKFAVETLICPDALDEKRDRMG | inactive
EASNCFAIRHFENKFAVETLICPDAVRGGRCRVS | 0.165
EASNCFAIRHFENKFAVETLICPDGR | inactive
EASNCFAIRHFENKFAVETLICPDILGCQVVWSA | inactive
EASNCFAIRHFENKFAVETLICPDNTVRRPWVLG | inactive
EASNCFAIRHFENKFAVETLICPDVARRPWGFFG | inactive
EASNCFAIRHFENKFAVETLICPDWMHLRFETRV | inactive
EASNCFAIRHFENKFAVETLICPEAMSMFGGCEE | inactive
EASNCFAIRHFENKFAVETLICPECGPCGFYDGG | inactive
EASNCFAIRHFENKFAVETLICPEGPTSRAKGQR | inactive
EASNCFAIRHFENKFAVETLICPEGQYR | inactive
EASNCFAIRHFENKFAVETLICPEHGRWMGRKLL | inactive
EASNCFAIRHFENKFAVETLICPELRY | -0.822
EASNCFAIRHFENKFAVETLICPETWVDIEATCR | -0.0935
EASNCFAIRHFENKFAVETLICPEWPLVGAGCWS | inactive
EASNCFAIRHFENKFAVETLICPFARHAMMRLSM | inactive
EASNCFAIRHFENKFAVETLICPFKTVRLSPGAN | -0.463
EASNCFAIRHFENKFAVETLICPFLVVNLSCIDC | 5.75
EASNCFAIRHFENKFAVETLICPFMFYICSDVPS | 5.97

Sequence | amyloid nucleation score
EASNCFAIRHFENKFAVETLICPFNKGRYMAFAS | inactive
EASNCFAIRHFENKFAVETLICPFNSSYNSWGCH | 7.73
EASNCFAIRHFENKFAVETLICPFTASRRAQGQD | 1.88
EASNCFAIRHFENKFAVETLICPFTGSISSKESG | 0.218
EASNCFAIRHFENKFAVETLICPFTHCSSFEECS | 2.45
EASNCFAIRHFENKFAVETLICPFWSKTVMISVY | 1.76
EASNCFAIRHFENKFAVETLICPGDDGKTSMVRG | -0.129
EASNCFAIRHFENKFAVETLICPGDIDVRRLSDW | inactive
EASNCFAIRHFENKFAVETLICPGDSLTWVRVVG | inactive
EASNCFAIRHFENKFAVETLICPGE | -0.102
EASNCFAIRHFENKFAVETLICPGELSLQQRGAV | inactive
EASNCFAIRHFENKFAVETLICPGESLNQGMFMA | inactive
EASNCFAIRHFENKFAVETLICPGKEGLRMLSGT | inactive
EASNCFAIRHFENKFAVETLICPGLGTYGTCRRW | inactive
EASNCFAIRHFENKFAVETLICPGLLASNNEEKS | inactive
EASNCFAIRHFENKFAVETLICPGLYSLGAGRTK | inactive
EASNCFAIRHFENKFAVETLICPGTDFNPSWLWS | inactive
EASNCFAIRHFENKFAVETLICPHAVVVVVIRKE | 4.5
EASNCFAIRHFENKFAVETLICPHCVRFRSDPVN | 0.618
EASNCFAIRHFENKFAVETLICPHDPSKRNMNAA | inactive
EASNCFAIRHFENKFAVETLICPHEVDVDLFYDE | 4.19
EASNCFAIRHFENKFAVETLICPHHVDLSESNLS | inactive
EASNCFAIRHFENKFAVETLICPHIYAP | inactive
EASNCFAIRHFENKFAVETLICPHVALFCVLSPS | inactive
EASNCFAIRHFENKFAVETLICPHVVTLQRLYGS | -0.00976
EASNCFAIRHFENKFAVETLICPHWPNMRQPGGA | inactive

Same assay, conditions: random library (experiment): 2

Sequence | amyloid nucleation score
EASNCFAIRHFENKFAVETLICPCNLICGVNLGV | 8.37
EASNCFAIRHFENKFAVETLICPCVSNFSLKLCL | 5.19
EASNCFAIRHFENKFAVETLICPCWYVVYFLW | inactive
EASNCFAIRHFENKFAVETLICPCYMYFVSRW | inactive
EASNCFAIRHFENKFAVETLICPDDVMIFLRYAR | inactive
EASNCFAIRHFENKFAVETLICPDFFYPCVLDWG | inactive
EASNCFAIRHFENKFAVETLICPDLLDNCYLLLI | -0.668
EASNCFAIRHFENKFAVETLICPDNITMVGNDTC | 0
EASNCFAIRHFENKFAVETLICPDRISQLFFFPS | inactive
EASNCFAIRHFENKFAVETLICPDRKIWFCSLGR | inactive
EASNCFAIRHFENKFAVETLICPDTHVYH | 0.528
EASNCFAIRHFENKFAVETLICPDVAVRSCVALG | inactive
EASNCFAIRHFENKFAVETLICPEKIN | inactive
EASNCFAIRHFENKFAVETLICPELYSVHSWWFD | inactive
EASNCFAIRHFENKFAVETLICPESRERVVTGLG | inactive
EASNCFAIRHFENKFAVETLICPF | inactive
EASNCFAIRHFENKFAVETLICPFEYINHMSWRA | -0.419

Sequence | amyloid nucleation score
EASNCFAIRHFENKFAVETLICPFI | inactive
EASNCFAIRHFENKFAVETLICPFSIVDDGTWLV | 2.7
EASNCFAIRHFENKFAVETLICPFYLCPL | 4.03
EASNCFAIRHFENKFAVETLICPGDFTTKEVTIE | inactive
EASNCFAIRHFENKFAVETLICPGF | 0.416
EASNCFAIRHFENKFAVETLICPGLC | inactive
EASNCFAIRHFENKFAVETLICPGMSVTDHMASG | -0.293
EASNCFAIRHFENKFAVETLICPGNP | inactive
EASNCFAIRHFENKFAVETLICPGRVF | inactive
EASNCFAIRHFENKFAVETLICPGTKGWTPTWFT | 4.08
EASNCFAIRHFENKFAVETLICPGVLMMRSIPGC | 4.7
EASNCFAIRHFENKFAVETLICPGYRLSDSIKWE | inactive
EASNCFAIRHFENKFAVETLICPHFSSNFIGSFV | inactive
EASNCFAIRHFENKFAVETLICPHLCSPEYNL | inactive
EASNCFAIRHFENKFAVETLICPHLPGARPFGVQ | 3.99
EASNCFAIRHFENKFAVETLICPHWSVTLEFAST | 5.78

Same assay, conditions: random library (experiment): 3

Sequence | amyloid nucleation score
EASNCFAIRHFENKFAVETLICPCNSQVRLWL | 0.419
EASNCFAIRHFENKFAVETLICPCRCGFSCTADG | 7.2
EASNCFAIRHFENKFAVETLICPCRMELWKVPGW | inactive
EASNCFAIRHFENKFAVETLICPCSLVWHCDFAA | 7.55
EASNCFAIRHFENKFAVETLICPDETGSRVGCSG | inactive
EASNCFAIRHFENKFAVETLICPDFVADMICVI | inactive
EASNCFAIRHFENKFAVETLICPDRERG | inactive
EASNCFAIRHFENKFAVETLICPDSLGPCFGNDG | inactive
EASNCFAIRHFENKFAVETLICPDSLSGSIGYRV | inactive
EASNCFAIRHFENKFAVETLICPEASQPLSLLTG | inactive
EASNCFAIRHFENKFAVETLICPECRSLSGGLDQ | inactive
EASNCFAIRHFENKFAVETLICPEELW | inactive
EASNCFAIRHFENKFAVETLICPEKVSRRVCGNW | inactive
EASNCFAIRHFENKFAVETLICPERYANSIVIKR | inactive
EASNCFAIRHFENKFAVETLICPEVGHKKEQDLC | inactive
EASNCFAIRHFENKFAVETLICPEVGKMALAHGG | inactive
EASNCFAIRHFENKFAVETLICPFHPLEEFVDAP | inactive

Sequence | amyloid nucleation score
EASNCFAIRHFENKFAVETLICPFLGTKIRRMPL | inactive
EASNCFAIRHFENKFAVETLICPFLSGLSWMTMM | 0.238
EASNCFAIRHFENKFAVETLICPFVTGTLEYWHC | 7.28
EASNCFAIRHFENKFAVETLICPFYYHWTVRSYR | inactive
EASNCFAIRHFENKFAVETLICPGDTCNLNWTPL | inactive
EASNCFAIRHFENKFAVETLICPGKETDGEGRLL | inactive
EASNCFAIRHFENKFAVETLICPGPAGSSSGRGE | inactive
EASNCFAIRHFENKFAVETLICPGRTQIRMQPFM | inactive
EASNCFAIRHFENKFAVETLICPGSFVHAFVRFR | inactive
EASNCFAIRHFENKFAVETLICPGTDRSGTIEGW | inactive
EASNCFAIRHFENKFAVETLICPGWKRMKSVRGA | inactive
EASNCFAIRHFENKFAVETLICPHDVHIQGKA | inactive
EASNCFAIRHFENKFAVETLICPHGDHSAGVVRD | inactive
EASNCFAIRHFENKFAVETLICPHPYCCELNITA | inactive
EASNCFAIRHFENKFAVETLICPHSSSNGHSAWG | inactive
EASNCFAIRHFENKFAVETLICPHVRISLDWIGW | 0.788
